# Reference: the supplement of paper PMC8728848
# The other results are listed elsewhere or left out.
# B1: EULS2 M4 (Oryza sativa) (protein)
# chain: MVYCRANPNYAMTARNGAVVLAPANPKDEYQHWIKDMRWSTSIKDEEGYPAFALVNKATGQAIKHSLGQSHPVRLVPYNPEVMDESVLWTESRDVGNGFRCIRMVNNIYLNFDAFHGDKYHGGVRDGTDIVLWKWCEGDSLRWKIQPYYILEQKLISEEDLNSAVDHHHHHH
# Assays:
# Assay in all cases: glycan array binding signal (z-score within array); higher = stronger binding
# Conditions in all cases: glycan notation: IUPAC condensed, linker removed
# [1] = target: Neu5Ac(a2-6)GlcNAc(b1-4)GlcNAc(b1-4)GlcNAc
# In short: (§1)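 Arrays were curated from the Consortium for Functional Glycomics database, 3228 in total, and kept only where the protein sequence was available. Binding is expressed as a within-array Z-score. This score was averaged across arrays of the same protein sequence at different concentrations or buffers and across linkers, and negative values can be read as non-binding.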
# Neu5Ac(a2-8)Neu5Ac = target: Neu5Ac(a2-8)Neu5Ac
# In short: as §1
# [2] = target: Neu5Ac(a2-8)Neu5Ac(a2-3)Gal(b1-3)GalNAc(b1-4)[Neu5Ac(a2-3)]Gal(b1-4)Glc
# In short: as §1
# [3] = target: Neu5Ac(a2-8)Neu5Ac(a2-3)Gal(b1-3)GalNAc(b1-4)[Neu5Ac(a2-8)Neu5Ac(a2-3)]Gal(b1-4)Glc
# In short: as §1
# [4] = target: Neu5Ac(a2-8)Neu5Ac(a2-3)Gal(b1-4)Glc
# In short: as §1
# [5] = target: Neu5Ac(a2-8)Neu5Ac(a2-3)Gal(b1-4)GlcNAc
# In short: as §1
# [6] = target: Neu5Ac(a2-8)Neu5Ac(a2-3)[Gal(b1-3)GalNAc(b1-4)]Gal(b1-4)Glc
# In short: as §1
# [7] = target: Neu5Ac(a2-8)Neu5Ac(a2-3)[GalNAc(b1-4)]Gal(b1-4)Glc
# In short: as §1
# [8] = target: Neu5Ac(a2-8)Neu5Ac(a2-8)Neu5Ac
# In short: as §1
# [9] = target: Neu5Ac(a2-8)Neu5Ac(a2-8)Neu5Ac(a2-3)Gal(b1-4)Glc
# In short: as §1
# [10] = target: Neu5Ac(a2-8)Neu5Ac(a2-8)Neu5Ac(a2-3)[Gal(b1-3)GalNAc(b1-4)]Gal(b1-4)Glc
# In short: as §1
# [11] = target: Neu5Ac(a2-8)Neu5Ac(a2-8)Neu5Ac(a2-3)[GalNAc(b1-4)]Gal(b1-4)Glc
# In short: as §1
# [12] = target: Neu5Ac(a2-8)Neu5Ac(a2-8)Neu5Ac(a2-8)Neu5Ac(a2-3)[GalNAc(b1-4)]Gal(b1-4)Glc
# In short: as §1
# [13] = target: Neu5Ac(a2-8)Neu5Gc(a2-3)Gal(b1-4)GlcNAc
# In short: as §1
# [14] = target: Neu5Ac(b2-6)Gal(b1-4)GlcNAc
# In short: as §1
# Neu5Ac(b2-6)GalNAc = target: Neu5Ac(b2-6)GalNAc
# In short: as §1
# [15] = target: Neu5Ac9Ac(a2-3)Gal(b1-3)GlcNAc
# In short: as §1
# [16] = target: Neu5Ac9Ac(a2-3)Gal(b1-4)GlcNAc
# In short: as §1
# [17] = target: Neu5Ac9Ac(a2-6)Gal(b1-4)GlcNAc
# In short: as §1
# [18] = target: Neu5Gc(a2-3)Gal(b1-3)GlcNAc
# In short: as §1
# [19] = target: Neu5Gc(a2-3)Gal(b1-3)[Fuc(a1-4)]GlcNAc
# In short: as §1
# Neu5Gc(a2-3)Gal(b1-4)Glc = target: Neu5Gc(a2-3)Gal(b1-4)Glc
# In short: as §1
# [20] = target: Neu5Gc(a2-3)Gal(b1-4)GlcNAc
# In short: as §1
# [21] = target: Neu5Gc(a2-3)Gal(b1-4)GlcNAc(b1-3)Gal(b1-4)GlcNAc(b1-2)Man(a1-3)[Neu5Gc(a2-3)Gal(b1-4)GlcNAc(b1-3)Gal(b1-4)GlcNAc(b1-2)Man(a1-6)]Man(b1-4)GlcNAc(b1-4)GlcNAc
# In short: as §1
# [22] = target: Neu5Gc(a2-3)Gal(b1-4)[Fuc(a1-3)]GlcNAc
# In short: as §1
# [23] = target: Neu5Gc(a2-6)Gal(b1-4)GlcNAc
# In short: as §1
# Neu5Gc(a2-6)GalNAc = target: Neu5Gc(a2-6)GalNAc
# In short: as §1
# [24] = target: Neu5Gc(a2-8)Neu5Ac(a2-3)Gal(b1-4)GlcNAc
# In short: as §1
# [25] = target: Neu5Gc(a2-8)Neu5Gc(a2-3)Gal(b1-4)GlcNAc
# In short: as §1
# [26] = target: Neu5Gc(a2-8)Neu5Gc(a2-3)Gal(b1-4)GlcNAc(b1-3)Gal(b1-4)GlcNAc
# In short: as §1
# [27] = target: Neu5Gc(a2-8)Neu5Gc(a2-6)Gal(b1-4)GlcNAc
# In short: as §1
# [28] = target: Neu5Gc(b2-6)Gal(b1-4)GlcNAc
# In short: as §1
binder,measurement,setting,value
B1,glycan array binding signal (z-score),[1],-0.367
same,glycan array binding signal (z-score),Neu5Ac(a2-8)Neu5Ac,-0.509
same,glycan array binding signal (z-score),[2],-0.429
same,glycan array binding signal (z-score),[3],1.2
same,glycan array binding signal (z-score),[4],1.06
same,glycan array binding signal (z-score),[5],-0.156
same,glycan array binding signal (z-score),[6],-0.446
same,glycan array binding signal (z-score),[7],-0.64
same,glycan array binding signal (z-score),[8],-0.325
same,glycan array binding signal (z-score),[9],-0.514
same,glycan array binding signal (z-score),[10],-0.536
same,glycan array binding signal (z-score),[11],-0.825
same,glycan array binding signal (z-score),[12],-0.453
same,glycan array binding signal (z-score),[13],-0.286
same,glycan array binding signal (z-score),[14],-0.372
same,glycan array binding signal (z-score),Neu5Ac(b2-6)GalNAc,0.656
same,glycan array binding signal (z-score),[15],-0.05
same,glycan array binding signal (z-score),[16],1.11
same,glycan array binding signal (z-score),[17],-0.532
same,glycan array binding signal (z-score),[18],-0.111
same,glycan array binding signal (z-score),[19],-0.495
same,glycan array binding signal (z-score),Neu5Gc(a2-3)Gal(b1-4)Glc,2.09
same,glycan array binding signal (z-score),[20],-0.415
same,glycan array binding signal (z-score),[21],-0.344
same,glycan array binding signal (z-score),[22],0.599
same,glycan array binding signal (z-score),[23],2.07
same,glycan array binding signal (z-score),Neu5Gc(a2-6)GalNAc,-0.203
same,glycan array binding signal (z-score),[24],-0.626
same,glycan array binding signal (z-score),[25],-0.413
same,glycan array binding signal (z-score),[26],-0.269
same,glycan array binding signal (z-score),[27],-0.446
same,glycan array binding signal (z-score),[28],-0.504
